The list shows a part of the results.

The test system of the assay is HSkMC (human skeletal muscle cells). Description: cytotoxicity call (relative viability < 0.9). To be noted: 10 µM.
On to `C[C@@H]1CN([C@H](C)CO)C(=O)c2c(c3ccccc3n2C)-c2ccccc2CO[C@@H]1CN(C)S(=O)(=O)c1ccc(Cl)cc1`, for which the cytotoxicity call is “inactive”.
With `NCC1OC(OC2C(CO)OC(OC3C(O)C(N)CC(N)C3OC3OC(CO)C(O)C(O)C3N)C2O)C(N)C(O)C1O.O=S(=O)(O)O` (stereo not given), the cytotoxicity call is “inactive”.
Consider `CNc1ncnc2c1ncn2[C@@H]1O[C@H](CO)[C@@H](O)[C@H]1O`, for which the cytotoxicity call is “inactive”.
For `CCOC[C@@H](O)CN`, the cytotoxicity call was “inactive”.
For the compound `COc1ccc(C#Cc2ccc3c(c2)[C@]2(C(=O)N3)[C@H](C(=O)N3CCN(c4ncccn4)CC3)[C@H]3C(=O)O[C@H](c4ccccc4)[C@H](c4ccccc4)N3[C@@H]2c2ccc(O)cc2)cc1`, the cytotoxicity call was “inactive”.
Regarding `Cc1noc(C)c1NC(=O)Nc1ccc2c(c1)C(=O)N([C@@H](C)CO)C[C@H](C)[C@H](CN(C)S(=O)(=O)c1ccc(Cl)cc1)OCCCC[C@@H](C)O2`, the cytotoxicity call is “inactive”.
Regarding `Cc1noc(C)c1NC(=O)Nc1cccc2c1O[C@@H](CN(C)Cc1ccc(Oc3ccccc3)cc1)[C@H](C)CN([C@H](C)CO)C2=O`, the cytotoxicity call is “inactive”.
On to `C[C@@H]1CN([C@H](C)CO)C(=O)Cc2cc(NC(=O)Cc3ccccc3)ccc2O[C@@H]1CN(C)C(=O)Nc1cccc2ccccc12`, for which the cytotoxicity call is “inactive”.
Turning to `Cc1noc(C)c1S(=O)(=O)Nc1ccc2c(c1)CC(=O)N([C@@H](C)CO)C[C@@H](C)[C@@H](CN(C)S(=O)(=O)c1cccs1)O2`, the cytotoxicity call is “inactive”.
Turning to `O=C1C(=CNC(CO)(CO)CO)C(=O)c2ccccc21`, the cytotoxicity call is “inactive”.
The entry for `C[C@@H]1CN([C@H](C)CO)C(=O)Cc2cc(NC(=O)Nc3cccc4ccccc34)ccc2O[C@@H]1CN(C)C(=O)Nc1ccc(F)cc1` is “inactive”.
Take `Cc1noc(C)c1NC(=O)Nc1ccc2c(c1)C(=O)N([C@H](C)CO)C[C@@H](C)[C@@H](CN(C)C(=O)Nc1cccc3ccccc13)O2`: the cytotoxicity call is “inactive”.
`C[C@@H]1CN([C@H](C)CO)C(=O)Cc2cc(NS(=O)(=O)c3cccs3)ccc2O[C@H]1CN(C)S(=O)(=O)c1cccs1`: the cytotoxicity call was “inactive”.
Take `Cc1cn[nH]c1.Cl`: the cytotoxicity call is “inactive”.
Consider `COc1ccc(C#Cc2cnc3c(c2)C(=O)N([C@H](C)CO)C[C@H](C)[C@H](CN(C)S(=O)(=O)c2ccc(F)cc2)O3)cc1OC`, for which the cytotoxicity call is “inactive”.
`Cc1cc(C(=O)Nc2cccc3c2O[C@H](CN(C)S(=O)(=O)c2c(C)noc2C)[C@H](C)CN([C@H](C)CO)C3=O)n(C)n1`: the cytotoxicity call was “inactive”.
The entry for `C[C@@H]1CCCCO[C@@H](CN(C)C(=O)NC2CCCCC2)[C@@H](C)CN([C@H](C)CO)C(=O)c2cc(NC(=O)Cc3ccccc3)ccc2O1` is “inactive”; for `CC[n+]1oc(-c2ccccc2)cc1C` it is “inactive”; for `COc1ccccc1-c1ccc2c(c1)O[C@H](CN(C)C(=O)c1cccnc1)[C@@H](C)CN([C@H](C)CO)S2(=O)=O` it is “inactive”.
As to `Cc1ccc(S(=O)(=O)Nc2cccc3c2O[C@H](CN(C)S(C)(=O)=O)[C@H](C)CN([C@H](C)CO)C3=O)cc1`, the cytotoxicity call is “inactive”.
As for `CC(=N)NCCCC[C@H](N)C(=O)O`, the cytotoxicity call is “inactive”.
Regarding `O=C(/C=C/c1ccc(O)c(O)c1)O[C@]1(C(=O)O)C[C@@H](O)[C@H](O)[C@H](O)C1`, the cytotoxicity call is “inactive”.
Consider `Cc1noc(C)c1NC(=O)Nc1ccc2c(c1)CC(=O)N([C@@H](C)CO)C[C@H](C)[C@H](CN(C)Cc1ccc(Cl)c(Cl)c1)O2`, for which the cytotoxicity call is “inactive”.
Turning to `C[C@@H]1CCCCO[C@H](CN(C)Cc2ccc(C(F)(F)F)cc2)[C@@H](C)CN([C@H](C)CO)C(=O)c2cc(NC(=O)CCCN(C)C)ccc2O1`, the cytotoxicity call was “inactive”.
Regarding `C[C@H]1CN([C@@H](C)CO)C(=O)c2cc(NC(=O)c3ccncc3)ccc2O[C@@H]1CN(C)S(=O)(=O)c1ccccc1`, the cytotoxicity call was “inactive”.
Take `Cn1cc(C(=O)N2CCN(CC(N)=O)CC2)c2nn(-c3ccccc3)c(=O)c-2c1`: the cytotoxicity call was “inactive”.
The entry for `C[C@@H]1CCCCO[C@@H](CN(C)C)[C@@H](C)CN([C@@H](C)CO)C(=O)c2cc(NS(=O)(=O)c3cn(C)cn3)ccc2O1` is “inactive”; for `COc1ncnc2nc[nH]c12` it is “inactive”; for `Cc1noc(C)c1S(=O)(=O)N(C)C[C@@H]1OCCCC[C@@H](C)Oc2ccc(NC(=O)Nc3cccc4ccccc34)cc2C(=O)N([C@@H](C)CO)C[C@H]1C` it is “inactive”.
In the case of `C[C@H](CO)N1C[C@H](C)[C@@H](CN(C)Cc2ccc(Oc3ccccc3)cc2)Oc2ccc(NS(=O)(=O)c3ccccc3)cc2CC1=O`, the cytotoxicity call was “inactive”.
Turning to `COc1ccc(S(=O)(=O)Nc2ccc3c(c2)C(=O)N([C@H](C)CO)C[C@@H](C)[C@@H](CN(C)Cc2ccc(Cl)c(Cl)c2)OCCCC[C@H](C)O3)cc1`, the cytotoxicity call was “active”.
The entry for `CNC(=O)C[C@H]1CC[C@@H]2[C@H](COC[C@H](O)CN2C(=O)c2ccccn2)O1` is “inactive”; for `COCC(=O)Nc1ccc2c(c1)C(=O)N(C)C[C@H](OC)[C@H](C)CN(Cc1cccc(F)c1)[C@@H](C)CO2` it is “inactive”; for `CC(=O)N[C@@H](CCC(=O)O)C(=O)O` it is “inactive”.
For `Cc1ccc(-c2ccc3c(c2)O[C@@H](CN(C)C(=O)Nc2ccc(C(F)(F)F)cc2)[C@H](C)CN([C@H](C)CO)S3(=O)=O)cc1`, the cytotoxicity call was “active”.
As to `COc1ccc(C#Cc2cnc3c(c2)C(=O)N([C@H](C)CO)C[C@@H](C)[C@@H](CN(C)CC2CCOCC2)O3)cc1`, the cytotoxicity call was “inactive”.
Regarding `Cc1noc(C)c1S(=O)(=O)N(C)C[C@H]1Oc2ccc(NS(C)(=O)=O)cc2CC(=O)N([C@H](C)CO)C[C@@H]1C`, the cytotoxicity call was “inactive”.
Regarding `CC(C)CC#Cc1ccc2c(c1)O[C@@H](CN(C)C(=O)Cc1cccnc1)[C@H](C)CN([C@H](C)CO)S2(=O)=O`, the cytotoxicity call was “inactive”.
With `C[C@@H]1CCCCO[C@H](CN(C)S(=O)(=O)c2ccc(Cl)cc2)[C@H](C)CN([C@@H](C)CO)C(=O)c2cc(NS(=O)(=O)c3cccs3)ccc2O1`, the cytotoxicity call was “inactive”.
On to `COc1cc2c(cc1OC)CN(C(=O)[C@H]1[C@@H]3C(=O)O[C@@H](c4ccccc4)[C@@H](c4ccccc4)N3[C@@H](c3ccc(OCCO)cc3)[C@]13C(=O)Nc1ccc(C#CCCO)cc13)CC2`, for which the cytotoxicity call is “inactive”.

The values above are taken from the antibiotic and cytotoxicity screens of Wong et al. (2023).
